This note sets out measurements from PMC12040169 (PLOS Biology, 2025).

SMILES strings stand for the structures. This is one part of the list.

The experiment has as its system T1, C. trachomatis L2/434/Bu expressing GFP (CTL2-GFP).
T1 construct: L2/434/Bu GFP intracellular growth in HeLa cells
The arrangement: species or system HeLa; C. trachomatis total inclusion area by high-content imaging, normalised to DMSO. Particulars: total inclusion area; 28.5 h, 10 µM; inhibitor. In a few lines: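 After bulk GFP and resorufin fluorescence reads, cells were fixed, stained with Hoechst and imaged by high-content microscopy. Inclusion area and number (GFP) stood in for chlamydial growth, nuclei count (Hoechst) for host cell viability. MICs were derived as for the bulk readout.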
In the case of `COc1ccc(CCNC(=O)c2cnc3scc(C)n3c2=O)cc1` [CBK287291], the “% of control remaining” value was determined as 69.9957.
For the compound `Cc1nc2ccc(NC(=S)N3CCN(c4ccccn4)CC3)cc2nc1C` [CBK267227], the “% of control remaining” value worked out at 98.6567.
`COc1ccc(S(=O)(=O)NC(=O)NCC2CC3C=CC2C3)cc1` (stereo not shown) [CBK022821]: the “% of control remaining” value is recorded as 126.373.
As for `O=C(CC12CC3CC(CC(C3)C1)C2)NCC(=O)Nc1ccc2[nH]c(=O)[nH]c2c1` [CBK295349], the figure is 84.2204; as for `CC(C)NC(=O)NC[C@H]1C[C@@H]2CCN1C[C@@H]2c1cc(C2CCCC2)nn1C` [CBK288744], 98.5106; as for `COCCn1c(=O)c2c(nc3oc(C(C)(C)C)cn32)n(C)c1=O` [CBK307566], 87.5901.
With `C=CCn1c(Cc2csc(NC(=O)Cc3ccc(Cl)cc3)n2)n[nH]c1=S` [CBK295359], the “% of control remaining” value was found to be 102.761.
As for `O=S(=O)(O)CCCSc1nc2ccccc2o1` [CBK026507N], the “% of control remaining” value stood at 97.4589.
Regarding `CN(C)CCNC(=O)c1cccc(-c2cc(N3CCCN(C)CC3)n3nccc3n2)c1` [CBK037143], the “% of control remaining” value came to 101.849.
As to `CC(NC(=O)C1CCN(CCOc2ccc(F)cc2)CC1)c1cccc2ccccc12` (stereo not shown) [CBK148634], the “% of control remaining” value is on record as 75.7117.
As for `CC[C@H]1CN(C(C)=O)CC[C@H]1CC(=O)Nc1nccs1` [CBK289130], the figure is 84.6272; as for `COc1ccc([C@@]23CC[C@@H](NC(=O)Nc4cccc(Br)n4)C[C@@H]2N(C)CC3)cc1OC` [CBK045703], 76.6442; as for `CCCC(NC(=O)c1cccc(-n2cnnc2)c1)c1cccs1` (stereo not shown) [CBK282745], 96.7714.
As for `COc1ccc(C(=O)N2CCN(c3ccc(NC(=O)c4cccnc4)cc3)CC2)cc1` [CBK270200], the “% of control remaining” value is given as 114.718.
With `COc1cc(CNCCO)ccc1OCc1cccc(Cl)c1` [CBK270013C], the “% of control remaining” value was found to be 60.6101.
On to `Cn1cc(C(C(=O)O)N2CCN(c3ccccc3)CC2)c2cc(C(=O)O)ccc21` (stereo not shown) [CBK286627], for which the “% of control remaining” value is 60.7293.
Consider `CCOc1cc(Cl)c(S(=O)(=O)NCCCN2CCOCC2)cc1Cl` [CBK268781], for which the “% of control remaining” value is listed as 88.0572.
As for `CN(C)[C@@H]1CN(C(=O)C2CC2)C[C@H]1c1cn(C)c2ccccc12` [CBK282681], the figure is 108.624; as for `COc1ccccc1N1CCN(C(=O)c2c(Cl)cnn2C)CC1` [CBK288247], 100.953; as for `Cc1nc(-c2ccccc2)sc1C(=O)C1=C(O)C(=O)N(CCCN2CCOCC2)C1c1ccco1` (stereo not shown) [CBK266476], 101.373.
`O=S(=O)([O-])CCC[n+]1c(/C=C/Nc2ccccc2)oc2ccc3ccccc3c21` [CBK261082]: the “% of control remaining” value stood at 83.4883.
As to `CC1(C)CC(=O)c2sc(NS(=O)(=O)c3sc(Cl)cc3Br)nc2C1` [CBK200029], the “% of control remaining” value was 81.9914.
Take `Cc1cc(Br)ccc1NC(=O)Cn1cnc2c1c(=O)n(C)c(=O)n2C` [CBK133289]: the “% of control remaining” value is recorded as 95.9895.
For `O=c1c(Oc2ccccc2Br)c(C(F)(F)F)oc2c(CN3CCCC3)c(O)ccc12` [CBK217827], the “% of control remaining” value was found to be 106.982.
For `Cc1ccc(C(=O)N2CCCN(C(=O)CN3CCCC3)C2)cc1` [CBK039081], the “% of control remaining” value is 72.3736.
In the case of `CCOc1c(OC)cc(C#N)cc1C(=O)O` [CBK269925], the “% of control remaining” value is on record as 95.7941.
Consider `O=C(O)CCC(=O)Nc1ccccc1C(=O)N1CCCCC1` [CBK266100], for which the “% of control remaining” value was 98.5489.
For `OCCC1CCCCN1c1nccnc1-c1ccsc1` (stereo not shown) [CBK037358], the “% of control remaining” value came to 76.0812.
On to `Cc1ccccc1-n1nc(C)c(CN(C)CC2CCN(C)C2)c1C` (stereo not shown) [CBK283035], for which the “% of control remaining” value was 112.831.
As for `COc1cc(OC)cc(C(=O)N2CCC3(CC2)CC(=O)c2c(OC)cc(OC)cc2O3)c1` [CBK164233], the figure is 138.49.
On to `Cc1cccc(OCCn2c(CCNC=O)nc3ccccc32)c1C` [CBK269539], for which the “% of control remaining” value amounted to 97.7957.
`CC(=O)Nc1ccc(S(=O)(=O)Nc2ccc(-c3nc4cc(C(=O)c5ccccc5)ccc4[nH]3)cc2)cc1` [CBK267819]: the “% of control remaining” value worked out at 101.772.
As for `CC(NC(=O)CCCC(=O)c1cccs1)c1cccc2ccccc12` (stereo not shown) [CBK297748], the figure is 66.0642; as for `CC(Sc1nc(N(C)C)nc(N2CCOCC2)n1)C(=O)Nc1ccc(Cl)c(Cl)c1` (stereo not shown) [CBK269229], 60.7496.
Take `CCOCCCNC(=O)C1CCN(c2cccc(F)c2C#N)CC1` [CBK306341]: the “% of control remaining” value is 38.1909.
Consider `CCNC(=O)O[C@@H]1CO[C@H]2[C@@H]1OC[C@@H]2NC(=O)Nc1ccc(C(C)=O)cc1` [CBK289473], for which the “% of control remaining” value turned out to be 93.3792.
As for `COc1ncccc1NC(=O)CSCC#N` [CBK306314], the “% of control remaining” value was determined as 79.8574.
Consider `Cc1ccccc1NC(=O)Cc1nc(CN2CCC3(CCOC3)C2)cs1` (stereo not shown) [CBK304164], for which the “% of control remaining” value is recorded as 107.854.
As to `CC(=O)N(C)c1ncc(Br)cc1C(=O)NCCc1ccccc1` [CBK076543], the “% of control remaining” value was determined as 108.941.
For the compound `CCC1CCCCN1C(=O)Cn1cnc2c(Cl)cc(Cl)cc2c1=O` (stereo not shown) [CBK305833], the “% of control remaining” value is listed as 99.1272.
With `COc1ccc(-c2ccc(-c3cc(C(=O)O)c4ccccc4n3)o2)cc1` [CBK300542], the “% of control remaining” value amounted to 57.4435.
For `COC(=O)[C@H]1CCc2ccccc2N1C(=O)C1CCC1` [CBK285478], the “% of control remaining” value was found to be 67.5197.
As for `O=C(O)CCC(NC(=O)c1ccc(Cl)cc1)C(=O)O` (stereo not shown) [CBK263597], the “% of control remaining” value is reported as 102.267.
As for `Cn1nnnc1SCC(=O)Nc1ccc(C(=O)O)cc1` [CBK267442], the figure is 100.34; as for `COCc1cc(CC2(NCc3ccc(NC(C)=O)cc3)COC2)no1` [CBK289701], 140.248.
On to `O=C(NC1CCCCCC1)c1[nH]nc(O)c1Cc1c(Cl)cccc1Cl` [CBK107847], for which the “% of control remaining” value came out at 99.9267.
Turning to `Cc1cc(C)cc(NC2=N[C@H]3[C@@H](O)[C@H](O)C[C@H](C(=O)N4CCCCC4)[C@H]3S2)c1` [CBK288952], the “% of control remaining” value amounted to 109.279.
For `O=C(c1cccs1)N1CCC2(CC1)Nc1ccccc1-n1cccc12` [CBK283489], the “% of control remaining” value is recorded as 94.6339.
As for `O=C(c1ccccc1CCc1ccccc1)N1CCN(Cc2ccc3c(c2)OCO3)CC1` [CBK268623], the figure is 88.9451; as for `CSc1ccc(C(NC(=O)OC(C)(C)C)C(=O)O)cc1` (stereo not shown) [CBK287196], 96.7496.
As to `CCOC(=O)C1(C2CCCCC2)CCN(C(=O)c2cc[nH]c2)CC1` [CBK137103], the “% of control remaining” value came out at 133.719.
As to `Cc1cc(C23CC4CC(CC(C(=O)O)(C4)C2)C3)c(C)cc1C12CC3CC(CC(C(=O)O)(C3)C1)C2` [CBK261734], the “% of control remaining” value was 85.4401.
Take `CC(C)Nc1cc(OC2CCOC2)ncn1` (stereo not shown) [CBK115888]: the “% of control remaining” value amounted to 102.024.
Regarding `CC(=O)c1ccc(-c2nccnc2NCc2cccnc2)s1` [CBK037050], the “% of control remaining” value is listed as 127.346.
As for `O=S(=O)(c1cc(Cl)sc1Cl)N1CCN(Cc2ccc3c(c2)OCO3)CC1` [CBK074743], the figure is 84.2948.
As for `O=c1[nH]c(=O)n([C@@H]2O[C@H](CO)[C@H](O)C2O)cc1I` (stereo partly shown) [CBK201304], the figure is 125.781.
As to `CC[C@H]1CN(C(=O)Nc2cccc(C(F)(F)F)c2)CC[C@H]1CC(=O)O` [CBK288776], the “% of control remaining” value was 116.304.
Turning to `Brc1cccc(-c2cn3ccnc3c(NC3CCOCC3)n2)c1` [CBK066291], the “% of control remaining” value was determined as 63.4395.
For `O=C(COc1ccccc1[N+](=O)[O-])Nc1cnc(-c2cccc(C(F)(F)F)c2)c(-c2ccco2)n1` [CBK036899], the “% of control remaining” value came out at 107.995.
For the compound `Cc1cnc(Cl)c2ncn([C@H]3C[C@@H](O)[C@@H](CO)O3)c12` [CBK201234], the “% of control remaining” value was 107.748.
For the compound `O=C1NC(=O)C(CC(=O)N2CCC(Cn3cncn3)(C3CCCCC3)CC2)N1` (stereo not shown) [CBK136808], the “% of control remaining” value is recorded as 80.4311.
As for `Cc1cc(S(=O)(=O)N2CCN(c3ccc(Cl)cc3)CC2)c(C)cc1Cl` [CBK044965], the figure is 77.5341.
As for `O=C(c1ccncc1)c1ccc(N2CCN(C3CC(=O)N(Cc4cccs4)C3=O)CC2)cc1` (stereo not shown) [CBK269074], the figure is 87.3715.
As for `Cc1ccccc1CN(C)C(C)C(=O)Nc1ccc(S(N)(=O)=O)cc1` (stereo not shown) [CBK304589], the figure is 63.2897; as for `COc1ccccc1C/C(N)=N/OC(=O)COc1ccc2ccccc2c1` [CBK263730], 95.1805; as for `COc1ccccc1OCC(=O)N1CCNC1=O` [CBK288201], 99.6977.
With `N#Cc1cccc(C(=O)NCC2(N3CCOCC3)CCSC2)c1` (stereo not shown) [CBK306344], the “% of control remaining” value is 84.6548.
Regarding `COc1ccccc1-c1nnc(NC(=O)Cc2cccs2)s1` [CBK287361], the “% of control remaining” value was 100.008.
Consider `COCCc1nc(Cc2ccc(OC)cc2)nn1CC1COCCO1` (stereo not shown) [CBK307521], for which the “% of control remaining” value came to 68.6227.
As to `O=C(O)CC(NC=C1C(=O)CCCC1=O)C(=O)O` (stereo not shown) [CBK261997], the “% of control remaining” value stood at 106.151.
Take `Cc1cc(Cl)ccc1OCC(=O)Nc1nnc[nH]1` [CBK287940]: the “% of control remaining” value is 91.205.
For `CN(C)CCN(C)Cc1ccccc1O` [CBK261875], the “% of control remaining” value worked out at 91.3393.
For `CCN1CCN(C(=O)CN(CCc2ccccc2)S(C)(=O)=O)CC1` [CBK266666], the “% of control remaining” value is given as 84.1032.
As for `CC1CCN(C(=O)Cn2ncn3c(cc4ccsc43)c2=O)CC1` [CBK284190], the figure is 67.898.
Turning to `CCCC1c2cccn2CCN1S(=O)(=O)c1ccc2[nH]c(=O)[nH]c(=O)c2c1` (stereo not shown) [CBK286388], the “% of control remaining” value came out at 90.248.
Regarding `O=C1CN(S(=O)(=O)c2ccc(F)cc2Cl)CCN1` [CBK051081], the “% of control remaining” value is on record as 40.2995.
Turning to `Cc1cc(C(F)(F)F)c2c(NC/C=C/c3ccco3)n[nH]c2n1` [CBK283651], the “% of control remaining” value was determined as 85.2902.
With `Cc1cc(NC(=O)Cn2nc(C(F)(F)F)c(Cl)c2C)no1` [CBK018709], the “% of control remaining” value is reported as 86.687.
As for `CCNc1cncc(-c2ccc(N)cc2)n1` [CBK065658], the figure is 100.371.
